According to a collection of fitness landscapes (doi:10.1016/j.celrep.2020.107928):
The full ranking holds about 81,000 sequences; the median of “one-hybrid fitness for binding NBS DNA” is about -0.1, and the highest 2% start at about 0.36. This is one part of the list.

B1: Caulobacter ParB omega fusion; a variant is named by its letters at X, in order, B8GW30 (parent)
chain: MESVVVGEPGMSEGRRGLGRGLSALLGEVDAAPAQAPGEQLGGSREAPIEILQRNPDQPRRTFREEDLEDLSNSIREKGVLQPILVRPSPDTAGEYQIVAGERAWRAAQRAGLKTVPIMVRELDDLAVLEIGIIENVQRADLNVLEEALSYKVLMEKFERTQENIAQTIGKSXSHVANXMRLLXLPDEVQSYLVSGELTAXHARAIAAAADPVALAKQIIEGGLSVRETEALARKAPNLSAGKSKGGRPPRVKDTDTQALESDLSSVLGLDVSIDHRGSTGTLTITYATLEQLDDLCNRLTRGI

Variants of: B1
Assay: one-hybrid fitness for binding NBS DNA (the Noc-binding site; scaled: cognate 1, non-cognate 0); higher = stronger binding
Details: with NBS DNA site
Outline: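 The reporter was HIS3, with the binding site 19 bp from the promoter, in E. coli USO used for bacterial one-hybrid selection of Caulobacter ParB libraries with four specificity codons randomised. Growth was on M9 lacking histidine, with 0.1 mM IPTG and 5 mM 3-AT, for 48 hours at 37°C. Illumina sequencing covered plasmids before and after selection; three replicate libraries were pooled and variants with under 10 reads dropped. A fitness score is the log change in variant-to-wild-type read ratio, rescaled to the cognate and non-cognate references.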

one-hybrid fitness for binding NBS DNA, 0.427:
RQAR

one-hybrid fitness for binding NBS DNA, 0.357:
QQQA

one-hybrid fitness for binding NBS DNA, 0.235:
RCRK

one-hybrid fitness for binding NBS DNA, 0.623:
QRMS

one-hybrid fitness for binding NBS DNA, 0.38:
RGKR

one-hybrid fitness for binding NBS DNA, 0.356:
QQCS

one-hybrid fitness for binding NBS DNA, 0.306:
RRDY

one-hybrid fitness for binding NBS DNA, 0.305:
RFHR

one-hybrid fitness for binding NBS DNA, 0.388:
RNNS

one-hybrid fitness for binding NBS DNA, ≤ 0.2:
FLEV
RDTV
FSPS
VHTG
NLQC
TRVF
RCLL
NHET
PRDL
ISQW
RNMS
LYKG
QFAK
PNEP
RSSQ
PPDC
ASVW
CADI
WGSS
GIDI
KFAR
HHKC
MWRG
SNTE
CSGF
IALC
VWDT
RCKD
STGE
SGKY
YKTS
HVMT
FTTG
SDTR
SSDD
RGFV
SMYI
YPDY
TCRD
DPIW
CLML
SWAY
MWHL
EMPR
ASVY
MEPS
AARA
SYHS
TNYS
AHYY
ERHR
ARFK
LLYH
DYLM
YQLE
LGKG
QMVV
IVGS
RIEC
GGHT
TSAE
QPLK
CATA
QEAF
TVHK
GQSR
VASY
DMDS
VSIL
GQTW
YCYS
YVTT
TQGW
VEPH
HNDC
YDAT
FPMN
AIDM
TLLT
GSWK
NLCT
LHWH
DRAS
QQVC
NNHN
TWFG
ATCI
ELES
LSCK
NAEH
IPHR
RCDN
RYDK
KLHR
ACNF
SSCY
QQAG
DYER
IGEW
INRN
GQYE
LAWH
ESAK
ESHG
RLGK
TNNI
CLQP
TYYT
QFCR
FKID
ALHK
VWSY
PDTA
CRIS
DIYT
SNPV
SMSF
CRYA
PELC
RIDP
KLDM
DSDM
RHIP
WKNG
PAER
IPHQ
TIKI
LKRL
FVTL
GPEP
TDAS
YDIS
RSVL
HYMT
QIQK
RLVH
WPTS
TMSE
KRFV
NVNV
APAQ
TQKL
RQRL
WRMS
GNPS
HWTT
WACY
CHFT
LHES
RPHC
SYAV
LYSV
PVNC
QYFG
VCLT
ISWR
FCHG
NFHR
NKRT
TGPC
PLAC
LSGK
SITP
EHMG
SPLL
NAEL
WDCV
TGRD
EHGG
IYRT
LIRE
SSLS
PSWV
KSQG
DDQR
QVIM
IDCL
DVPR
PMHQ
ANTA
TYHG
PLPI
MMVC
NAVW
PAVF

one-hybrid fitness for binding NBS DNA, 0.216:
CCRR
